Values marked as one replicate rest on one cluster of the flow cell; about a third of the high ones do not repeat.
System: ATP
Assay: switch fluorescence ratio, 500 uM ATP over buffer (Cy3 cluster intensity, sum of 5 cycles each) (fold (ratio)); higher = stronger signal-on switching upon ATP binding; sequences stand for … in TCGTCGGCAGCGTCAGATGTGTATAAGAGACAGTTTTTTTTTTTTTTTTTTTTTTTTT…TC
Conditions: aptamer strand: ATP DNA aptamer (quencher-CACCTGGGGGAGTATTGCGGAGGAAGG + anchor), 100 nM annealed; ATP concentration: 500 uM; one replicate
In short: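 Clusters carrying Cy3-labelled switching strands on a modified Illumina MiSeq flow-cell were annealed to 100 nM quencher-labelled ATP aptamer and imaged in selection buffer. They were imaged again after 15 min with 500 uM ATP at 22 °C, over five buffer/ATP cycles with NaOH stripping and re-annealing in between. For each cluster, the fluorescence ratio is the summed Cy3 intensity of the target cycles divided by that of the buffer cycles, averaged per switch-domain sequence. Clusters outside 100-1000 RFU were left out.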
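Also: ATP exposure 15 min at 22 °C before imaging.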

Sequence | switch fluorescence ratio
AAACGAAAGA | 1.04
GACCTCCTAC | 2.15
CATCGGTACC | 1.02
ACATTTGATG | 0.948
GCTAAAGCCA | 1.01
TGCGTAGATT | 1.04
CGAGTTCCCC | 1.1
AGGTCCTATG | 1.06
TACACGTCCG | 1.12
CGCTGCTTGG | 1.05
ATATTCCGCA | 1.69
AGCTATGATT | 0.992
GGGGGATCTG | 1.02
GGCTGTTATA | 0.976
ACGTTTCAGG | 1.07
CGTGGTCAC | 0.978
GATGCTAGTT | 0.995
CGGGAACGAT | 1.04
AGGTACCTGA | 1.04
CATAAAGCGA | 3.05
CAACTTGGAA | 1.01
TATTTATGAA | 0.906

Sequence | switch fluorescence ratio
ATCCTTGTAT | 1
ATCAGTGGGC | 1
AGTATGTA | 0.971
TTCTGATAAT | 1.04
AGACTAAGTC | 0.98
AAGTAATGT | 1.05
TTACGCGTCG | 1.1
GAAACTGAGG | 0.989
GGCTGACTAG | 0.977
TGTGGAATGC | 1.28
GCCAGT | 0.984
GAGATTAGTT | 0.982
TGGGCTACGG | 1.01
TCGAGGCTCC | 1
GATTGTTA | 0.978
ATAGTGAGCA | 0.986
TGTGCTGATA | 1.01
GGTTTGGAC | 1.01
TACGATGTTG | 0.996
GACCCCGGTT | 1.15
TTTGCAGTAG | 1.18
TTTGCCCAGT | 1.05

Sequence | switch fluorescence ratio
GTTGTTGTGC | 1.04
CGGCTGAAGA | 0.961
TCATCAAGGT | 1.01
TCAATGTACA | 1.01
CCGTTGGTT | 1
GTCGTCGGCT | 1.01
TTGCATGTAC | 1.1
TTAAGGACGC | 1.07
CTACTGGGCG | 0.993
CCTACCTGCC | 2.59
AATTAAGTTT | 0.989
TCAGGGGT | 1.06
GCGGACTACG | 0.996
ACATGCCCCT | 1.01
AGTGCTAGGC | 0.991
ACTTGGGGC | 0.984
TACACTGT | 1.05
GGCTTAGCTG | 1.04
AACCTACTAT | 1.1
GGAGGTGGGA | 0.994
GTGATGTATG | 0.97
TGAATGTGCA | 0.997

Sequence | switch fluorescence ratio
ATCTTTCATC | 1.05
CACGATCTAA | 1.03
TTTTCGATAA | 0.965
CCTTTAAAGT | 1.01
TTGCATAGTC | 1.01
AGTGTCCGAG | 1.02
GTCGCGCTAT | 1.03
CAGCGAATCT | 1.05
CTTCTACTAC | 1.21
TATTGCGAGT | 0.978
ACGGCATATG | 1.03
GGTATTGAGC | 1.03
TGGAGTAATC | 2.09
GGGCTTCCCA | 1.02
ACTCTTGAGA | 1.03
AGGGAGTGTT | 1.01
AACTTGACGG | 1.06
TAAGAAAAGG | 1.02
GATCTCAACC | 0.965

From the supplement of paper PMC10126150
